The supplement of paper PMC7238544
Structures can show the parent of a compound that is named as a salt. ± gives the standard deviation of the averaged measurements. The list shows a part of the results.

What was measured:
Settings in all cases: priming compound concentration 100 µM
hAMSC donor 1 [1] = assay: Hoechst total cell count ratio vs vehicle control; higher = more cells (less toxicity)
hAMSC donor 2 [2] = assay: as above
hAMSC donor 1 [3] = assay: transgenic luciferase activity (RLU/mg protein) fold change vs vehicle control (ratio); higher = more transgene expression
hAMSC donor 2 [4] = assay: as above
hAMSC donor 1 [5] = assay: transfection efficiency (EGFP+ cells / Hoechst count) fold change vs vehicle control (ratio); hAMSC are human adipose-derived mesenchymal stem cells given an EGFP-luciferase plasmid by lipofection; higher = enhanced transfection
hAMSC donor 2 [6] = assay: as above
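For Hoechst total cell count ratio vs vehicle control in this document: compound added 30 min before Lipofectamine 3000 lipoplex delivery, triplicate-well means expressed against DMSO vehicle control wells of the same 96-well plate.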
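For transfection efficiency (EGFP+ cells / Hoechst count) fold change vs vehicle control in this document: compounds added 30 min before Lipofectamine 3000 lipoplex transfection, triplicate means relative to DMSO vehicle wells on the same plate, luciferase RLU normalized to BCA total protein.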
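For transgenic luciferase activity (RLU/mg protein) fold change vs vehicle control in this document: compounds in DMSO added 30 min before Lipofectamine 3000 transfection of pEGFP-Luc in 96-well plates, values are means of triplicate wells over DMSO vehicle wells on the same plate.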

Row | SMILES | Hoechst total cell count ratio (hAMSC donor 1 [1]) | Hoechst total cell count ratio (hAMSC donor 2 [2]) | transgenic luciferase activity (hAMSC donor 1 [3]) | transgenic luciferase activity (hAMSC donor 2 [4]) | transfection efficiency (hAMSC donor 1 [5]) | transfection efficiency (hAMSC donor 2 [6])
1 | CN1CCN(CC/C=C2/c3ccccc3Sc3ccc(S(=O)(=O)N(C)C)cc32)CC1 [Thiothixene] | 0.085 ± 0.057 | 0.156 ± 0.089 | 0.00946 ± 0.0066 | 0.00058 ± 6.1e-05 | 0.355 ± 0.35 | 0.0803 ± 0.044
2 | C[C@@H]1CN(CCCn2c3ccccc3c3ccccc32)C[C@H](C)N1 [Rimcazole dihydrochloride] | 0.102 ± 0.045 | 0.11 ± 0.036 | 0.00687 ± 0.008 | 0.0101 ± 0.014 | 0.62 ± 0.15 | 0.133 ± 0.089
3 | CCCc1nc(C(C)(C)O)c(C(=O)OCc2oc(=O)oc2C)n1Cc1ccc(-c2ccccc2-c2nnn[nH]2)cc1 [Olmesartan medoxomil] | 1.38 ± 0.11 | 2.01 ± 0.37 | 0.278 ± 0.16 | 0.503 ± 0.15 | 0.561 ± 0.15 | 0.22 ± 0.041
4 | CC(=O)O[C@H]1C[C@@H]2CC[C@@H]3[C@H](CC[C@@]4(C)[C@H]3C[C@H]([N+]3(C)CCCCC3)[C@@H]4OC(C)=O)[C@@]2(C)C[C@@H]1N1CCCCC1 [Vecuronium bromide] | 0.912 ± 0.18 | 1.37 ± 0.15 | 1.74 ± 0.98 | 0.901 ± 0.18 | 1.39 ± 0.32 | 1 ± 0.059
5 | COc1cc2nc(N3CCN(C(=O)C4CCCO4)CC3)nc(N)c2cc1OC (centres undefined) [Terazosin] | 1.37 ± 0.14 | 1.25 ± 0.26 | 1.01 ± 0.6 | 1.17 ± 0.43 | 0.75 ± 0.085 | 1.51 ± 0.064
6 | C[C@H]1COc2c(N3CCN(C)CC3)c(F)cc3c(=O)c(C(=O)O)cn1c23 [Levofloxacin] | 1.14 ± 0.13 | 1.37 ± 0.23 | 0.823 ± 0.15 | 0.854 ± 0.055 | 0.712 ± 0.11 | 0.906 ± 0.14
7 | CC1=C(CC(=O)O)c2cc(F)ccc2/C1=C\c1ccc([S+](C)[O-])cc1 (centres undefined) [Sulindac] | 1.58 ± 0.095 | 1.54 ± 0.032 | 0.595 ± 0.42 | 0.576 ± 0.32 | 0.694 ± 0.14 | 0.682 ± 0.26
8 | CC(C)c1nc(CN(C)C(=O)N[C@H](C(=O)N[C@@H](Cc2ccccc2)C[C@H](O)[C@H](Cc2ccccc2)NC(=O)OCc2cncs2)C(C)C)cs1 [Ritonavir] | 1.56 ± 0.25 | 1.27 ± 0.025 | 0.316 ± 0.15 | 1.22 ± 0.34 | 0.679 ± 0.18 | 0.824 ± 0.18
9 | O=c1c(O[C@@H]2O[C@H](CO)[C@@H](O)[C@H](O)[C@H]2O)c(-c2ccc(O)c(O)c2)oc2cc(O)cc(O)c12 [Isoquercitrin] | 1.15 ± 0.037 | 1.5 ± 0.1 | 0.555 ± 0.22 | 0.783 ± 0.031 | 0.943 ± 0.21 | 0.714 ± 0.16
10 | CCN(CC)CCNC(=O)c1ccc(N)cc1 [Procainamide hydrochloride] | 2.1 ± 0.1 | 1.38 ± 0.23 | 2.48 ± 1 | 0.389 ± 0.094 | 1.63 ± 0.11 | 1.24 ± 0.14
11 | CC1(C)S[C@@H]2[C@H](NC(=O)COc3ccccc3)C(=O)N2[C@H]1C(=O)O [Penicillin V] | 0.938 ± 0.072 | 0.869 ± 0.1 | 0.548 ± 0.4 | 1.14 ± 0.15 | 0.958 ± 0.21 | 0.969 ± 0.16
12 | Cc1cc(NS(=O)(=O)c2ccc(N)cc2)no1 [Sulfamethoxazole] | 1.26 ± 0.078 | 1.56 ± 0.24 | 0.656 ± 0.55 | 0.389 ± 0.15 | 1.05 ± 0.054 | 1.05 ± 0.16
13 | CN(C/C=C/C#CC(C)(C)C)Cc1cccc2ccccc12 [Terbinafine hydrochloride] | 1.24 ± 0.22 | 0.819 ± 0.082 | 0.481 ± 0.15 | 0.4 ± 0.021 | 0.535 ± 0.16 | 0.734 ± 0.035
14 | Nc1nc(N)nc(-c2cc(Cl)ccc2Cl)n1 [Irsogladine maleate] | 1.25 ± 0.22 | 1.23 ± 0.26 | 0.781 ± 0.15 | 0.649 ± 0.11 | 0.901 ± 0.13 | 1.2 ± 0.18
15 | OCc1cccnc1 [3-Pyridinemethanol] | 1.36 ± 0.08 | 1.19 ± 0.13 | 1.32 ± 0.44 | 1.08 ± 0.33 | 0.771 ± 0.089 | 1.01 ± 0.12
16 | CO[C@H]1/C=C/O[C@@]2(C)Oc3c(C)c(O)c4c(O)c(c(/C=N/N5CCN(C6CCCC6)CC5)c(O)c4c3C2=O)NC(=O)/C(C)=C\C=C\[C@H](C)[C@H](O)[C@@H](C)[C@@H](O)[C@@H](C)[C@H](OC(C)=O)[C@@H]1C [Rifapentine] | 1.69 ± 0.57 | 1.72 ± 0.16 | 0.0648 ± 0.048 | 0.285 ± 0.079 | 0.114 ± 0.055 | 0.174 ± 0.029
17 | CO[C@H]1/C=C/O[C@@]2(C)Oc3c(C)c(O)c4c(c3C2=O)C2=NC3(CCN(CC(C)C)CC3)NC2=C(NC(=O)/C(C)=C\C=C\[C@H](C)[C@H](O)[C@@H](C)[C@@H](O)[C@@H](C)[C@H](OC(C)=O)[C@@H]1C)C4=O [Rifabutin] | 1.17 ± 0.048 | 1.39 ± 0.35 | 0.166 ± 0.064 | 0.743 ± 0.24 | 0.386 ± 0.09 | 0.31 ± 0.092
18 | CC(C)C[C@H](NC(=O)[C@@H](O)[C@H](N)Cc1ccccc1)C(=O)O [Bestatin] | 0.992 ± 0.027 | 0.926 ± 0.15 | 1.2 ± 0.82 | 1.22 ± 0.75 | 1.06 ± 0.37 | 1.35 ± 0.074
19 | CCOC(=O)C1=C(C)NC(C)=C(C(=O)OCC)C1c1ccccc1/C=C/C(=O)OC(C)(C)C [Lacidipine] | 0.207 ± 0.049 | 0.13 ± 0.062 | 0.00207 ± 0.0018 | 0.000389 ± 5.9e-05 | 1.76 ± 2 | 0.818 ± 0.87
20 | CN(C)CC[C@@H](c1ccc(Br)cc1)c1ccccn1 [Dexbrompheniramine maleate] | 1.59 ± 0.074 | 1.3 ± 0.12 | 0.896 ± 0.79 | – | 0.716 ± 0.13 | 1.02 ± 0.15
21 | CCN(CC)CCOC(=O)C1(C2CCCCC2)CCCCC1 [Dicyclomine hydrochloride] | 2.48 ± 0.13 | 1.58 ± 0.13 | 0.147 ± 0.06 | – | 0.201 ± 0.015 | 0.663 ± 0.077
